Screen size: about 420,000 compounds; about 64,000 (15%) were called active. The shares of active, inactive and inconclusive entries below differ from those in the screen. The call rests on the fitted dose curve; in most records, active means well fitted inhibition curve with a large enough effect; inconclusive means small, poorly fitted or top-dose-only effect; inactive means flat fitted curve, though single readings scatter. No potency is given beside an inconclusive call; the fits are too rough.
Experiment: qHTS for Inhibitors of human tyrosyl-DNA phosphodiesterase 1 (TDP1): qHTS in cells in absence of CPT; further: nearly all actives have a fitted effect of over 55% in size
Settings: DT40 Tdp1-/- hTDP1 cells, no CPT, ATP luminescence, 48 h; activity change, negative = growth inhibition: at 46.2 µM (top of the series) unless noted
How it was run: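 Readout: luminescence from CellTiter-Glo after 30 min in the dark at RT. Cells: DT40 Tdp1-/- with stable hTDP1, 400/well. Exposure: compounds alone, ≥48 hr, 37 °C.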
On the % scale 0 is the no-effect control and ±100 the full control effect; potency means the concentration at half of the fitted maximal effect; tags describe the fitted curve by direction and shape.

Compound | activity change, negative = growth inhibition | Potency
C/C=C/C=[N+](\[O-])C(C)/C(=N/O)c1ccc(F)cc1 (configuration not stated) | inactive: 16.9% | 
Cc1ccc(OCC(=O)Nc2ccc3c(c2)nc(CCN2CCCC2)n3C)cc1 |  | inconclusive [inhibitor, single point]
CC(=O)c1cccc(NC(=O)c2cccc3ccccc23)c1 | inactive: -4.03% | 
COC(=O)C1CSC(C(=O)OC)N1C(=O)CN1CCN(c2ccccc2)CC1 (configuration not stated) | inactive: -7.86% | 
O=C(N/N=C\C=C\c1ccc2c(c1)OCO2)C1COc2cc3ccccc3cc2O1 (configuration not stated) | inconclusive: -36.1% [inhibitor] | 
CCCCN(CC)CCNC(=O)c1ccc2c(Cl)c3c(nc2c1)CCC3 |  | active: 16.4 µM
Cc1ccc(-n2c3c(cc(C(=O)NCc4ccco4)c2=O)C(=O)CCC3)cc1 | inconclusive: -32% [inhibitor] | 
Cc1cc(C)c2sc(N3CCN(C(=O)C4CC4)CC3)nc2c1 |  | active: 18.4 µM
Cc1ccc(C(=O)Nc2cc(C(F)(F)F)ccc2-n2cncn2)o1 |  | inconclusive [inhibitor, single point]
Cc1ccc(C(C)C)c(OCC(O)CN(C)Cc2ccccc2)c1 (configuration not stated) |  | inconclusive [inhibitor, single point]
CSc1ccc(CCNc2ncnc3onc(-c4ccc(Cl)cc4)c23)cc1 |  | active: 10.3 µM
Cc1ccc(SCc2ccc(C(=O)Nc3cccc([N+](=O)[O-])c3)cc2)cc1 |  | inconclusive [inhibitor, partial curve]
Cc1cccc(C)c1NC(=O)CSc1nnc(-c2cccnc2)o1 |  | inconclusive [inhibitor, single point]
COc1ccc(OC2OC3COC(C)(C)OC3C(O)C2NC(C)=O)cc1 (configuration not stated) | inactive: 5.98% | 
O=C(NCCNc1nccc(C(F)(F)F)n1)c1cccs1 | inactive: -9.97% | 
O=C(NC1CCCCCC1)C1Cc2ccccc2CN1C(=O)c1ccco1 (configuration not stated) |  | inconclusive [inhibitor, single point]
O=C(N1CCCC1)C12CC3CC(CC(C3)C1)C2 | inactive: -11.1% | 
O=C(Nc1ccccc1O)c1cccc(S(=O)(=O)Nc2ccccc2O)c1 |  | inconclusive [inhibitor, partial curve]
Oc1ccc2oc3c(c2c1C=NCc1ccncc1)CCCC3 | inactive: -25% | 
CC(=O)Nc1ccc(N(C(=O)c2ccco2)C(C(=O)NC2CCCC2)c2ccc(N3CCOCC3)cc2)cc1 (configuration not stated) | inactive: -19.2% | 
Cc1cc(C)c(NC(=O)Cn2c(=O)n(-c3ccc(F)cc3)c(=O)c3c(C)c(C(=O)N(C)C)sc32)c(C)c1 | inactive: 2.07% | 
O=[N+]([O-])c1ccccc1S(=O)(=O)n1cnc2ccccc21 | inactive: 10.5% | 
O=C(NCCc1ccc(O)c(O)c1)C1COc2ccccc2O1 (configuration not stated) |  | inconclusive [inhibitor, single point]
COc1cc(CCC(=O)N2CCN(c3ccc([N+](=O)[O-])cc3)CC2)cc(OC)c1OC |  | inconclusive [inhibitor, single point]

Compound | activity change, negative = growth inhibition | Potency
O=C1NN(c2ccc(Br)cc2)C(=O)/C1=C\c1ccc(O)cc1O | inactive: -10.4% | 
COc1ccc(Oc2nc3c(C)cccn3c(=O)c2/C=C(\C#N)c2nc3ccccc3[nH]2)cc1 |  | inconclusive [inhibitor, partial curve]
CCn1c2ccccc2c2cc(NC(=O)COc3ccc(OC)cc3)ccc21 |  | inconclusive [inhibitor, single point]
COc1cccc(CC(=O)Nc2cc(C(F)(F)F)ccc2N2CCCC2)c1 |  | inconclusive [inhibitor, single point]
O=S(=O)(c1cccc(-c2cn3cccnc3n2)c1)N1CCCCCC1 |  | inconclusive [inhibitor, partial curve]
CCOC(=O)[C@]12CCC=C1N(Cc1ccc(Cl)cc1Cl)C(=O)[C@H](CC(=O)N1CCN(C(=O)c3ccco3)CC1)C2 |  | active: 16.4 µM
COc1cccc(C2C(C#N)=C(C)NC3=C2C(=O)CC(C)(C)C3)c1 (configuration not stated) |  | inconclusive [inhibitor, single point]
Cc1cccc(C)c1-n1nnnc1C1c2ccccc2C(=O)N1CCC(C)C (configuration not stated) |  | inconclusive [inhibitor, single point]
CC(C)Cn1c(SCC(=O)NC2CCCc3ccccc32)nc(O)cc1=O (configuration not stated) | inactive: -2.46% | 
Cc1c(CCO)sc[n+]1CC(=O)c1ccccc1 |  | inconclusive [inhibitor, full curve, poor fit]
Cc1ccc(S(=O)(=O)c2c(C)cc(C)[nH]c2=O)cc1 | inactive: 7.08% | 
Cc1ccc2c(CN3CCN(c4ccccc4F)CC3)cc(=O)oc2c1 |  | inconclusive [inhibitor, single point]
Cc1cc(NC(=O)CC(C)C)c(=O)n(Cc2ccccc2F)c1 |  | inconclusive [inhibitor, partial curve]
Cc1cc(NC(=O)CSc2nc(-c3ccc(F)cc3)cs2)no1 | inactive: -12.7% | 
Oc1ccc2ccccc2c1/C=N/c1nc2c(s1)CCCC2 |  | active: 29.1 µM
COc1ccc([C@H]2/C=C\CN(Cc3ccc(N(C)C)cc3)[C@@H](C)C(=O)N2Cc2ccc(F)cc2)cc1 |  | inconclusive [inhibitor, single point]
COc1ccc(CCNC(=O)c2cccc([N+](=O)[O-])c2)cc1OC |  | inconclusive [inhibitor, single point]
COC(=O)c1cc2occc2n1Cc1nc(-c2cccc(Br)c2)oc1C | inactive: -9.74% | 
Cc1ccsc1C1Nc2ccc3ncccc3c2C2=C1C(=O)CC(C)(C)C2 (configuration not stated) |  | inconclusive [inhibitor, single point]
O=C(O)CCCCCCCCCC(=O)c1cccs1 | inactive: -1.17% | 
c1ccc(-n2ncc3c(N4CCN(CCOc5cccc6ccccc56)CC4)ncnc32)cc1 |  | active: 25.9 µM
Cc1ccc(NC(=O)C(C)OC(=O)/C=C/c2ccccc2)cc1S(=O)(=O)N1CCOCC1 (configuration not stated) |  | inconclusive [inhibitor, single point]
COc1ccc(C(=O)c2sc(Nc3cc(Cl)ccc3C)nc2N)cc1OC |  | inconclusive [inhibitor, partial curve]

— PubChem BioAssay AID686978 (National Center for Advancing Translational Sciences (NCATS), 2013)
